Experimental data: PubChem BioAssay AID360 (National Center for Advancing Translational Sciences (NCATS), 2006)
The whole screen tested about 48,000 compounds, of which about 550 (1.1%) were called active. Inconclusive results (about 4%) are left out. No stated cut-off is given here; in the data, active means potency below about 15 µM; inconclusive means mostly about 16 µM to 33 µM; inactive means weaker than that. Some of the results follow.

These molecules were tested against Lysosomal acid glucosylceramidase (Homo sapiens) (UniProt P04062) (assay: Glucocerebrosidase). Conditions: purified enzyme, resorufin glucoside fluorescence (screen aimed at inhibitors), 20 min.
In short: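 Wild-type enzyme at 0.2 nM final in 50mM citric acid/KH2PO4, 10mM sodium taurocholate, 0.01% tween-20, pH 5.9, with resorufin beta-D-glucopyranoside at 30 uM final. Compounds titrated, 20 min at RT, red fluorescence read; AC50 from titration.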
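Further: the screen sought inhibitors.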
Potency means the concentration at half of the fitted maximal effect.

UniProt P04062, sequence (P04062 whole entry, looked up): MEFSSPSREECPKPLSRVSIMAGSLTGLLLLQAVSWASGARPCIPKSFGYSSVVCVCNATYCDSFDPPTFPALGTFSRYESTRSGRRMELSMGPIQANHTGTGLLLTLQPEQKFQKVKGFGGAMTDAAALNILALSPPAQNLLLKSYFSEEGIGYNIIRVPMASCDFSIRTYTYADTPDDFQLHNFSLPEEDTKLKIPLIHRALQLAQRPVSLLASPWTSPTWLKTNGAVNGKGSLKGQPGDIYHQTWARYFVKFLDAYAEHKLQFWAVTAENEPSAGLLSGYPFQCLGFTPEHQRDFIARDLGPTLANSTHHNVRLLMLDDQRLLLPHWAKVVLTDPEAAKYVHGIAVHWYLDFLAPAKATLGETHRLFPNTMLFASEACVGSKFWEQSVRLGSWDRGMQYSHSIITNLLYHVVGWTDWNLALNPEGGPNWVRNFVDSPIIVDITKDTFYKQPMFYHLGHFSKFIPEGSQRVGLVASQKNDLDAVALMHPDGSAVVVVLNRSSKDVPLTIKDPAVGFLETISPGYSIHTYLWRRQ

Potency, inactive:
O=C(Nc1ccccc1C(=O)O)c1cccc(NC(=O)c2ccc(Br)o2)c1 > 76.9 µM, Cc1noc(NS(=O)(=O)c2ccc(N3C(=O)c4ccccc4C3=O)cc2)c1C > 76.9 µM, Cc1cccc(N(CC(=O)NC2CCCCC2)C(=O)CCC(=O)Nc2cc(C)ccn2)c1 > 76.9 µM, Cc1nc(NC(=O)CSc2nc3cccnc3n2Cc2ccccc2)sc1C > 76.9 µM, COc1ccc(S(=O)(=O)NC(CC(=O)N2CCc3ccccc32)c2ccco2)cc1 (stereo not given) > 76.9 µM, COc1ccc(O)c(C(=O)c2cc(C#N)c(=O)n(CCN3CCOCC3)c2)c1 > 76.9 µM, COc1ccc(C(c2nnnn2C2CCCCC2)N2CCN(c3ccccc3F)CC2)cc1 (stereo not given), O=C(COC(=O)C1=COCCO1)Nc1ccccc1Oc1ccccc1 > 76.9 µM, CCOC(=O)c1ccc(NC(=O)CSc2nnc(-c3cccs3)n2CC)cc1 > 76.9 µM, CCCNC(=O)C1CCN(S(=O)(=O)c2ccc(Br)cc2)CC1 > 76.9 µM, CCOC(=O)Cn1c2c(c(-c3ccccc3OC)cc1=O)CCCC2 > 76.9 µM, CCOc1ccc(N2C(=O)CC(Sc3ncccn3)C2=O)cc1 (stereo not given) > 76.9 µM, N=c1n(CCN2CCOCC2)c2ccccc2n1CC(O)COc1ccccc1 (stereo not given), Cc1cccc(OCC(=O)Nc2ccc(N3CCN(S(C)(=O)=O)CC3)cc2)c1 > 76.9 µM, CC(=O)Nc1ccc(S(=O)(=O)NCCNC(=O)c2ccccc2F)cc1 > 76.9 µM, CCOc1ccc(-c2nnc(-c3cccs3)o2)cc1OCC > 76.9 µM, COc1ccccc1-n1cnc(N)c1C(=O)c1ccccc1 > 76.9 µM, [O-][n+]1onc2c1CCc1c-2nn(-c2ccccc2Cl)[n+]1[O-] > 76.9 µM, Cc1cc(Br)ccc1OCc1nc(-c2cccnc2)no1 > 76.9 µM, CCOC(=O)c1c(C)c(C(=O)NCc2cccnc2)c(C)n1CC > 76.9 µM, CC(=O)NC(Cc1ccc(C)cc1)C(=O)NC1CCN(C(=O)c2cnccn2)CC1 (stereo not given) > 76.9 µM, CCN1CCN(C(c2cc(OC)c(OC)c(OC)c2)c2nnnn2C(C)C)CC1 (stereo not given) > 76.9 µM, CN(C1=NC(=O)C(CC(=O)Nc2ccc(Br)cc2)S1)c1ccc(O)cc1 (stereo not given), CC(=O)N1CCN(CCN=CC2=C(O)CC(C)(C)CC2=O)CC1 > 76.9 µM, CCOC(=O)CSc1nnc(NC(=O)c2cccc(S(=O)(=O)N3CCCCC3)c2)s1 > 76.9 µM, CCn1c(CNC(=O)c2ccc(OC)cc2)nnc1SCC(=O)c1ccccc1 > 76.9 µM, O=C(O)CCC(=O)Nc1nnc(C(F)(F)F)s1 > 76.9 µM, Cc1ccc(-n2ncc3c(=O)n(CC(=O)NCC4CCCO4)cnc32)cc1 (stereo not given) > 76.9 µM, CC1(C)CC(=O)C(/C=N/c2ncccc2C(=O)O)=C(O)C1 > 76.9 µM, O=C(CN1C(=O)NC2(CCCCCCC2)C1=O)NC(=O)NCc1ccco1 > 76.9 µM, CCOC(=O)N1CCN(c2c(NCCCN(CC)c3cccc(C)c3)c(=O)c2=O)CC1 > 76.9 µM, NC1=NC(=O)CC(C(=O)NCc2ccccc2)S1 (stereo not given) > 76.9 µM, CC(=O)NCCn1c(SCC(=O)NCC2CCCO2)nc2ccccc2c1=O (stereo not given) > 76.9 µM, COCCN1C(=O)c2ccccc2C(C(=O)NCc2ccco2)C1c1c[nH]c2ccccc12 (stereo not given) > 76.9 µM, COC(=O)C1ON2OC(C(=O)OC)C(C(=O)OC)C2C1CC(C)=O (stereo not given) > 76.9 µM, O=C1CCC(=O)N1OCCCCOc1ccccc1 > 76.9 µM, COc1ccc(-n2nc3c(c2NC(=O)c2c(-c4ccccc4Cl)noc2C)CS(=O)(=O)C3)cc1 > 76.9 µM, CCOC(=O)N1CCN(C(=O)c2ccc3c(=O)n(CCC4=CCCCC4)c(=O)[nH]c3c2)CC1 > 76.9 µM, COc1cc(Cl)c(C)cc1NC(=O)CSc1nnc(-c2ccco2)n1CC(C)C > 76.9 µM, CC1(C)C2CCC1(CS(=O)(=O)NCc1ccc(C(=O)O)cc1)C(=O)C2 (stereo not given) > 76.9 µM, CCOC(=O)N1CCC(NC(=O)CN2C(=O)COc3ccc(C(C)(C)C)cc32)CC1 > 76.9 µM, O=C(OCC(=O)N1CCc2ccccc21)c1ccc[n+]([O-])c1 > 76.9 µM, O=C(NC(Cc1c[nH]c2ccccc12)c1nnc2n1CCCCC2)c1cccs1 (stereo not given) > 76.9 µM, CNc1nc(N2CCc3ccccc32)ncc1F > 76.9 µM, O=C(CN1C(=O)c2ccccc2S1(=O)=O)NCc1ccccn1 > 76.9 µM, CCC(=O)N1CCc2cc(S(=O)(=O)N3CCc4ccccc4C3)ccc21 > 76.9 µM, O=C(CNCC1CCCO1)N1CCCc2ccccc21 (stereo not given) > 76.9 µM, COc1ccc(-c2c3c(=O)n(C)c(=O)n(C)c3cn2C2CCCCC2)cc1 > 76.9 µM, Cc1cccc(N(CC(=O)NCc2ccccc2)C(=O)Cn2nnc(-c3ccc(C)o3)n2)c1 > 76.9 µM, COc1ccc(O)c(C(=O)c2cnc3onc(C)c3c2)c1 > 76.9 µM, O=C(NCCc1ccncc1)Nc1ccc(Cl)cc1 > 76.9 µM, CCOC(=O)c1[nH]c2ccc(OC)cc2c1NC(=O)CN1CCSCC1 > 76.9 µM, O=C(CC(Cc1ccccc1)C(=O)O)NCCc1ccc2c(c1)OCO2 (stereo not given) > 76.9 µM, COc1cc2nc(C3CCC3)n(NC(=O)C3CCC(OC)CC3)c(=O)c2cc1OC (stereo not given) > 76.9 µM, CC(=O)Nc1ccccc1NC(=O)CN(C)S(=O)(=O)c1ccc(C)cc1 > 76.9 µM, Cc1cc(C(F)(F)F)nn1Cc1ccc(C(=O)NCc2ccco2)o1 > 76.9 µM, CCOC(=O)c1sc(NC(C)=O)c(C(=O)OCC)c1C > 76.9 µM, COc1cccc(OC)c1C(=O)Nc1ccccc1C(=O)N1CCOCC1 > 76.9 µM, COc1ccc2nc3sc(C(=O)N4CCN(C)CC4)cc3cc2c1, O=C(c1cc(-c2ccco2)on1)N1CCN(C(c2ccccc2)c2ccccc2)CC1 > 76.9 µM, OCCNc1cc(-n2nc(-c3ccccc3)cc2-c2ccccc2)ncn1 > 76.9 µM, O=C(CCSc1ccccc1)Nc1ncccn1 > 76.9 µM, CC(C)(C)N1C(=O)Cc2c1nc(N)c1c(N)nc(N3CCCCC3CO)c(C#N)c21 (stereo not given), CCOC(=O)c1cc(NC(=O)c2ccoc2C)cc(C(=O)OCC)c1 > 76.9 µM, O=C(Nc1ccc(N2CCCCC2)c(Cl)c1)c1cccnc1 > 76.9 µM, C#CCOC(=O)CCC(=O)Nc1cc(OC)nc(OC)n1 > 76.9 µM, O=C1NC(=O)C2(CCC(C(=O)O)C2)N1 (stereo not given) > 76.9 µM, COCCOC(=O)c1cc(C(=O)c2cc(F)ccc2O)coc1=N > 76.9 µM, CCOC(=O)c1ccc(Cn2cnc3ccccc3c2=O)cc1 > 76.9 µM, CCOC(=O)c1ccc(S(=O)(=O)n2c(CN3CCCCC3)nc3ccccc32)cc1 > 76.9 µM, COc1cccc(CNC(=O)c2cc3oc4ccccc4c3n2C)c1OC > 76.9 µM, CCOC(=O)CCCCC(=O)c1[nH]c(=O)[nH]c1CSc1nc2ccccc2[nH]1 > 76.9 µM, Cc1cc(=O)[nH]c(SCc2cccc(Br)c2)n1 > 76.9 µM, COC(=O)c1ccccc1N(C)S(C)(=O)=O > 76.9 µM, COc1ccc(C2/C(=C(/O)c3ccc(Cl)cc3)C(=O)C(=O)N2CCN2CCOCC2)c(OC)c1 (stereo not given) > 76.9 µM, COCCCn1c(Cc2ccccc2)nnc1SCC(=O)N1CCCCC1 > 76.9 µM, Cc1ccc2cc(C#N)c(NCCNC(=O)C3CCC3)nc2c1C > 76.9 µM, COc1cc(-c2nc3ccccn3c2NCC2CCCO2)ccc1O (stereo not given), COc1ccc(NC(=O)CN2CCN(S(=O)(=O)c3ccc(C(C)C)cc3)CC2)cc1OC > 76.9 µM, COc1cccc(NC(=O)N2CCN(c3ccc(C(F)(F)F)cn3)CC2)c1 > 76.9 µM, COCc1nc2ccccc2n1Cc1ccccc1Br > 76.9 µM, COc1cccc(OCc2nnc(SC)n2C)c1 > 76.9 µM, O=C(CN1C(=O)CCC1=O)Nc1ccc2c3c(cccc13)CC2 > 76.9 µM, O=C(CSc1nnnn1C1CCCCC1)N1CCc2ccccc21 > 76.9 µM, Cc1cnc(-c2nnc(N(C)C(=O)C3CCCO3)s2)cn1 (stereo not given) > 76.9 µM, Clc1ccc(CSc2nnc(-c3ccncc3)o2)c(Cl)c1 > 76.9 µM, Cc1ccc(C)n1-c1ncn[nH]1 > 76.9 µM, C/C(Cl)=C/Cn1c(SCCN2CCOCC2)nc2c1c(=O)[nH]c(=O)n2C > 76.9 µM, COC(=O)Nc1c(C)nn(Cc2ccccc2C)c1C > 76.9 µM, Cc1ccc(-c2cc(-c3cccc(F)c3)n[nH]2)c(O)c1 > 76.9 µM
